This is an account of results in PubChem BioAssay (NCI).

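Interpolation was linear, between the two tested concentrations surrounding the appropriate level; five concentrations were tested over 48 hours in 96-well plates. The concentration for 50% growth inhibition is given as GI50. The concentration for full growth arrest is given as TGI.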 Some results are limits rather than exact numbers.

This test has as its system NCI-H322M lung. Kind of test: inhibition of tumour cell growth, NCI panel, 48 h.

On to `COc1ccc(Cc2nn(CC(=O)N/N=C/c3ccc(Br)cc3)c(=O)c3c(C)noc23)cc1`, for which the GI50 was 22.7 µM and the TGI was over 100 µM.
Turning to `COc1ccc(C(=O)/C=C/c2ccccc2Br)cc1S(N)(=O)=O`, the GI50 is 3.28 µM and the TGI came to 14 µM.
